Experimental data taken from paper PMC12199426.
Results are given in words; binding and its absence hold for the method and conditions named. In cells and extracts the contact can be indirect. Some results given as binding are weak or reduced against the parent protein; the word gives no strength. For part of these data: Sequences can lack the tags named with a protein. One block for each molecule: values may come before it.

Protein sequences, listed by entry. Tags and fused reporters are not part of them.
UniProt O35286: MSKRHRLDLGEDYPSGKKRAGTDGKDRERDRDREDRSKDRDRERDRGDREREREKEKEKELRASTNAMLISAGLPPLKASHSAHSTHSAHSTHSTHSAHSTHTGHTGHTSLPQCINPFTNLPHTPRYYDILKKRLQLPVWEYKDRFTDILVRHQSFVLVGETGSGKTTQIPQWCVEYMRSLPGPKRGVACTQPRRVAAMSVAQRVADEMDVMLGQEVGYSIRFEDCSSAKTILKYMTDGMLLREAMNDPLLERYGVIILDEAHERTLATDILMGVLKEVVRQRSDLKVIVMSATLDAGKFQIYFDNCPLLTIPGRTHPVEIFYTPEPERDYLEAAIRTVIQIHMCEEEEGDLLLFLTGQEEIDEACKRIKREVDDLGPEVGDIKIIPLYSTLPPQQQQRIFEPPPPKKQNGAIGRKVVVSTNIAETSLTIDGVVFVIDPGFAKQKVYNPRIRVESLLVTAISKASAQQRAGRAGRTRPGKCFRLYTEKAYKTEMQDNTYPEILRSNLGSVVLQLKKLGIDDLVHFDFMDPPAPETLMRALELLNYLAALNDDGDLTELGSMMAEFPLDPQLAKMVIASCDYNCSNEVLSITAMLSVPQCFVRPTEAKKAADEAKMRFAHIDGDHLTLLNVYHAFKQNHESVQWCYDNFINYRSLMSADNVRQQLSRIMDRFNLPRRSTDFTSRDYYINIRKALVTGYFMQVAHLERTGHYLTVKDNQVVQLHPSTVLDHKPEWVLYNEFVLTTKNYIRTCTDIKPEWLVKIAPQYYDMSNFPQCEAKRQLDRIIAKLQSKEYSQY
UniProt Q60668: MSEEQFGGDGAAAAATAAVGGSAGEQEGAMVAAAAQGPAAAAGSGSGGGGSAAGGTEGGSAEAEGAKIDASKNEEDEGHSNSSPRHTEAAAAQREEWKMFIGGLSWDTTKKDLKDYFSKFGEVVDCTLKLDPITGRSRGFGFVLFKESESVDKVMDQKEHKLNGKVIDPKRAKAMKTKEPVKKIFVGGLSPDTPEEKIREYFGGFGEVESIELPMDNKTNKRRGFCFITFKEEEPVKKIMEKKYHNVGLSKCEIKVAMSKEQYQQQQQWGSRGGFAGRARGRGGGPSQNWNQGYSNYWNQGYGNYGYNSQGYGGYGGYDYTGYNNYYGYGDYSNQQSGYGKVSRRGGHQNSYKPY

How the values were obtained:
[1] = target: T1, Breast cancer amplified sequence 2 (Bcas2) (mouse (endogenous in splenic B cells)) (UniProt Q9D287); test: co-IP; extracts of LPS-activated mouse splenic B cells; Bcas2 antibody overnight at 4°C, protein A/G beads, western blotting
T1 sequence: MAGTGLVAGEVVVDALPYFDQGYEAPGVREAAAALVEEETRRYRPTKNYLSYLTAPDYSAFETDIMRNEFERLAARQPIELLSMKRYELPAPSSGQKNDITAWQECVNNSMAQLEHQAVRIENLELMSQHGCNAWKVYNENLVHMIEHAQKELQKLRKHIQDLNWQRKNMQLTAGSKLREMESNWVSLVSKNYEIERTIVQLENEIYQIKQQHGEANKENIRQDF

[2] = target: T1, Breast cancer amplified sequence 2 (Bcas2) (mouse (endogenous in splenic B cells)); test: condition: only splenic B cells without LPS stimulation; co-IP; extracts of mouse splenic B cells without LPS stimulation ex vivo; Bcas2 antibody, protein A/G beads, western blotting
[3] = target: T2, full-length Bcas2 with FLAG tag (UniProt Q9D287); test: co-IP; 293T cells transfected with FLAG-tagged Bcas2 (full length or coiled-coil deletions) and SRSF7-HA; IP by the FLAG tag
T2 sequence: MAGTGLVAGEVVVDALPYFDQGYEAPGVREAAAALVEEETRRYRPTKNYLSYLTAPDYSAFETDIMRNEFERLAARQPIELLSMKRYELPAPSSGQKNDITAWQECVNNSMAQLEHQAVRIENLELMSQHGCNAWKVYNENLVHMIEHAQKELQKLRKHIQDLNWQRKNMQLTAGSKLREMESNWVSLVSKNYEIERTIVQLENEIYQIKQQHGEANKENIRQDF

Molecule: HNRNP K (from UniProt P61979 1-463)
binding [1]: binds

Molecule: DHX15 (from UniProt O35286 1-795)
binding [2]: no binding
binding [1]: binds

B1: SRSF7 (protein, UniProt Q8BL97 1-267)
chain: MRSSARGRPLQAATAFFLSLFFFLRRFERGFWLWGGDSETKVYVGNLGTGAGKGELERAFSYYGPLRTVWIARNPPGFAFVEFEDPRDAEDAVRGLDGKVICGSRVRVELSTGMPRRSRFDRPPARRPFDPNDRCYECGEKGHYAYDCHRYSRRRRSRSRSRSHSRSRGRRYSRSRSRSRGRRSRSASPRRSRSVSLRRSRSASLRRSRSGSIIGSRYFQSRSRSRSRSRSISRPRSSRSKSRSPSPKRSRSPSGSPHRSASPERMD
binding [1]: binds

Further lines, results first:

binding [1]: binds
Molecule: HNRNP D (from UniProt Q60668 1-355)

binding [3]: binds
B2: SRSF7-HA (protein, UniProt Q8BL97 1-267)
chain: MRSSARGRPLQAATAFFLSLFFFLRRFERGFWLWGGDSETKVYVGNLGTGAGKGELERAFSYYGPLRTVWIARNPPGFAFVEFEDPRDAEDAVRGLDGKVICGSRVRVELSTGMPRRSRFDRPPARRPFDPNDRCYECGEKGHYAYDCHRYSRRRRSRSRSRSHSRSRGRRYSRSRSRSRGRRSRSASPRRSRSVSLRRSRSASLRRSRSGSIIGSRYFQSRSRSRSRSRSISRPRSSRSKSRSPSPKRSRSPSGSPHRSASPERMD
